Laboratory results taken from PubChem BioAssay AID1159614 (National Center for Advancing Translational Sciences (NCATS), 2016).
In all, about 45,000 compounds went through this assay and about 65 (0.1%) were called active. The call rests on the fitted dose curve; in most records, active means well fitted activation curve with a large enough effect; inconclusive means small, poorly fitted or top-dose-only effect; inactive means no such curve, though single readings can be large or run the other way. The list shows a part of the results.

Biological target: Galactocerebrosidase (Homo sapiens) (UniProt P54803)
Chain of UniProt P54803 (P54803 whole entry, looked up): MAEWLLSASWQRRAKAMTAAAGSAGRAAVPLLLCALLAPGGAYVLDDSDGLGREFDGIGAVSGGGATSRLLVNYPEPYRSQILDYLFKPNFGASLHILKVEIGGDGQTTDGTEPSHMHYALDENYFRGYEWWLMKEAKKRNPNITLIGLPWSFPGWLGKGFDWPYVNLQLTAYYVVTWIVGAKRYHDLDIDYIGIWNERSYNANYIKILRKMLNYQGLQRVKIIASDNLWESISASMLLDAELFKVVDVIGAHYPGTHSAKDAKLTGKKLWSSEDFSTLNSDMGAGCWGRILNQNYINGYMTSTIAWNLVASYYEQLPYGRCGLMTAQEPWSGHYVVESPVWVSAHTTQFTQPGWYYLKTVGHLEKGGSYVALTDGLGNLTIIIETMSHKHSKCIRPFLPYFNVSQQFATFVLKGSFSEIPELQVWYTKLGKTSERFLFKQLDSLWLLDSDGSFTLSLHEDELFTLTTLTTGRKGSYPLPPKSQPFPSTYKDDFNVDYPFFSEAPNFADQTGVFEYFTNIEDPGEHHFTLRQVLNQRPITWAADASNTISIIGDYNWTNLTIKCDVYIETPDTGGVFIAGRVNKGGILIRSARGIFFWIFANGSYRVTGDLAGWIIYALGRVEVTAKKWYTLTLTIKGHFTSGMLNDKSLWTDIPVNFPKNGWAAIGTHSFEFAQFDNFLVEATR
Test: A Novel Cell-Based Assay to Identify Small Molecules for B -Galactocerebrosidase; further: 0% is about no effect; nearly all actives have a fitted effect of over 65% in size
Conditions: 145M-Twi-hGALC-G270D cells, HMU-beta-Gal fluorescence, 48 h; series mostly up to 57.5 µM; activation: at the top concentration
Method in brief: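 qHTS, 1536-well; 145M-Twi-hGALC-G270D cells (WT line also made) in DMEM/F12 + 10% FBS; compound incubation on live cells; HMU-β-gal 0.1 mM final, pH 5.2, NaTC; carbonate stop; fluorescence increase = enhanced residual activity.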

activation, inactive:
COc1ccccc1CNC(=O)C1CCN(Cc2cc3ccccc3n2Cc2cccc(C)c2)CC1 -1.94%
COc1ccc2c(c1)CC(NC(=O)Nc1ccc(NC(C)=O)cc1)CO2 (configuration not stated) 9.73%
CC(C)CNC(=O)c1c(-c2ccccc2)c(-c2ccccc2)nn(C)c1=O -7.78%
CCOc1ccc(NC(=O)C2CCN(S(=O)(=O)c3ccc4c(c3)oc(=O)n4C)CC2)cc1 -4.45%
CCOc1cc(C)c(C(C)C)cc1S(=O)(=O)n1ccnc1CC -5.04%
CCOc1ccc2nc(N3CCC(C(=O)Nc4ccc(Br)cc4F)CC3)sc2c1 -29.1%
O=C(CSc1nnc(-c2ccncc2)n1-c1ccccc1)Nc1ccc(Br)cc1 -8.53%
COc1ccc2c(c1)c1c(c(=O)n(Cc3ccccc3)c(=O)n1Cc1ccccc1)n2C -2.83%
CCSc1ncc(Cl)c(C(=O)N(Cc2ccc(C(C)(C)C)cc2)C2CCS(=O)(=O)C2)n1 (configuration not stated) -9.42%
CCCNC(=O)c1c(NC(=O)c2ccc(C)cc2)sc2c1CCCCC2 -11.9%
CC(=O)N1CCOc2cc(S(=O)(=O)Nc3cc(C(F)(F)F)ccc3Cl)c(C)cc21 -4.25%
Cc1ccc(-c2noc(-c3nnn(CC(=O)Nc4cccc(C(F)(F)F)c4)c3N)n2)cc1 -10.7%
O=C(CCCN1CCC(O)(c2cccc(C(F)(F)F)c2)CC1)c1ccc(F)cc1 -9.46%
CCOC(=O)c1c(C)oc2nc(C)nc(NCCCN3CCN(c4cc(Cl)ccc4C)CC3)c12 -18%
CCOC(=O)c1cccc(NC(=O)Nc2ccc3c(c2)N(C)C(=O)c2ccccc2S3)c1 -15.9%
Cc1ccc(C(=O)NCC(=O)OCc2cc(=O)n3nc(C4CC4)sc3n2)cc1 -12.2%
O=C(NCCCN1CCN(c2ccccc2F)CC1)C1COc2ccccc2C1 (configuration not stated) -12.5%
O=C(Nc1cccc(-c2nc3ccccc3[nH]2)c1)c1c(F)cccc1F 7.76%
O=C(O)c1cccnc1SCc1cccc(Cl)c1 -16.7%
COc1ccc(S(=O)(=O)Cc2ccc(C(=O)N3CCN(c4cc(C)ccc4C)CC3)o2)cc1 -6.68%
COc1ccc(CNC(=O)C2CCN(S(=O)(=O)c3c(C)noc3/C=C/c3cccs3)CC2)cc1 -14.7%
Cc1ccccc1NC(=O)CCOc1ccccc1 -12.3%
COc1cc2ccccc2cc1C(=O)Nc1cccc(-c2nc3ccccc3o2)c1 -6.16%
COc1ccc(N2CCN(C(=O)c3cn(C)c4ccc(S(=O)(=O)N(C)C5CCCCC5)cc4c3=O)CC2)cc1 -7.31%
CC1=C(C(=O)Nc2ccc(C)cc2Cl)C2(CCCCC2)OC1=O -21.7%
COc1cc(-c2nc3ccc(Cl)cn3c2Nc2ccc3c(c2)OCO3)ccc1O -7.85%
Cn1cc(-c2cc3n(n2)CCC(=O)N3CCCC(=O)Nc2ccccc2Cl)c2ccccc21 -16.4%
Nc1nn(-c2ccccc2)nc1C(=O)OCc1ccccc1Br -7.97%
Cc1ccccc1S(=O)(=O)Cc1ccc(C(=O)NCc2ccccc2Cl)o1 -2.57%
Cc1ccc(NC(=O)c2cc(CN3CCOCC3)on2)cc1Cl -11.8%
COc1ccccc1N1CCN(CCCNc2cc(=O)n(C)c(=O)n2C)CC1 -5.14%
CCc1ccccc1NC(=O)c1cc2sc(Cl)cc2n1CC -23.7%
CCOC(=O)c1c(C)[nH]c(C)c1S(=O)(=O)NCC(=O)Nc1ccc(CC)cc1 -10.2%
O=C(c1cccs1)c1cn(CCOc2ccc(F)cc2)c2ccccc12 -29.9%
COc1ccc2c(c1)CCc1c(C(=O)Nc3c(C)nn(Cc4c(Cl)cccc4Cl)c3C)noc1-2 -5.98%
O=C(Cn1cnc2onc(-c3ccc(F)cc3)c2c1=O)N1CCN(c2ccccc2F)CC1 -20.3%
O=C(O)Cc1sc(Nc2ccc(C(=O)O)cc2)nc1-c1ccccc1 -16%
CCOC(=O)c1noc2ncn(CC(=O)Nc3cc(Cl)ccc3OC)c(=O)c12 -17.1%
Cc1cc(Br)ccc1NC(=O)c1coc(=O)c2ccccc12 -9.85%
O=C(Nc1ccc(Cl)c(Cl)c1)c1cc(S(=O)(=O)N2CCN(c3cccc(Cl)c3)CC2)ccc1F -9.28%
Cc1oc2ncn(CC(C)C)c(=O)c2c1C(=O)Nc1cccc(C(F)(F)F)c1 -12%
Cc1ccc(CNC(=O)CN(C)S(=O)(=O)c2ccc(Br)s2)cc1 -12.9%
CC(C)c1ccccc1NC(=O)CSc1nnc(COc2ccccc2)o1 -17.5%
CCOc1ccccc1CNC(=O)CCCN1C(=O)COc2ccc(C)cc21 -19%
COc1ccc(-c2cn(-c3ccc(C)cc3)c(S(=O)(=O)CC(=O)Nc3ccccc3)n2)cc1 0.102%
CCCOc1ccc(C(=O)NCC(c2ccc(OC)cc2)N2CCCCC2)cc1 (configuration not stated) -31%
CC(C)NC(=O)Cn1ccc2cc(S(=O)(=O)N3CCCCCC3)ccc21 -8.12%
CCn1c(=O)c2sccc2n2c(CCC(=O)N3CCN(c4ccccc4OC)CC3)nnc12 8.37%
O=C(NCCCCc1ccccc1)c1nn(-c2ccccc2F)nc1CO -7.47%
O=C(c1ccc(CS(=O)c2ccccc2Cl)o1)N1CCN(c2cccc(C(F)(F)F)c2)CC1 (configuration not stated) -1.87%
Cc1nn(CCC(=O)NCc2cccc(Br)c2)c(=O)c2nn(-c3ccccc3)c(C)c12 -14.4%
CC(C)OCCCn1c(SCC(N)=O)nc2c(sc3ccccc32)c1=O -3.24%
COc1ccc(-c2nnc(SCC(=O)Nc3ccccc3C)o2)cc1OC -12.4%
O=S(=O)(c1ccccc1)c1nc(-c2cccs2)oc1N1CCCCC1 -24.3%
CC(NC(=O)c1ccc(CSc2nc3ccncc3n2Cc2ccc(F)cc2)cc1)c1ccccc1 (configuration not stated) -8.28%
Cc1cccc(OCCCSc2nc(-c3ccc(C(C)(C)C)cc3)nc3cc(=O)[nH]n23)c1C -8.43%
COCCNC(=O)c1ccc2c(c1)N(Cc1ccc(C(F)(F)F)cc1)C(=O)c1ccccc1S2 -14.6%
Cc1cccc(-n2c(=O)c3c(c4cc(C)ccc4n3C)n(CC(=O)Nc3ccccc3Cl)c2=O)c1 5.39%
CCCCCn1c(=O)[nH]c2cc(C(=O)NCc3ccc(F)cc3)ccc2c1=O -8.39%
COC(=O)c1ccc(NC(=O)CSc2nc3c(c(=O)n(C)c(=O)n3C)n2Cc2ccccc2)cc1 -13.7%
COc1ccc(C(=O)NCc2nnc(SCC(=O)Nc3ccc(F)cc3)n2-c2ccccc2)cc1 -11%
Cc1ccc(NC(=O)Cn2cnc3c(oc4ccccc43)c2=O)cc1 -8.91%
Cc1ccc(C(=O)c2oc3ccccc3c2NC(=O)COc2ccc(C(C)(C)C)cc2)cc1 -5.41%
Cc1ccc(COc2cccc3cc(-c4noc(-c5ccc(C)cc5)n4)c(=O)oc23)cc1 -6.5%
CC(C)C(=O)c1cc2c(cc1NC(=O)c1ccccc1F)OCCO2 -14.6%
Cc1cccc(-n2ncc(C(=O)Nc3ccc4c(c3)OCO4)c2C2CCN(C(=O)OC(C)(C)C)CC2)c1 -4.31%
COc1ccc(Cl)cc1NC(=O)c1c(NCc2cccs2)sc2c1CCCC2 -23.9%
Oc1ccc(NCc2ccccc2OCc2ccccc2Cl)cc1 -8.53%
CN(C)c1ccc(NC(=O)CSC2=Nc3ccccc3C3=NC(CC(=O)NCc4ccc5c(c4)OCO5)C(=O)N23)cc1 (configuration not stated) -5.39%
Cc1ccc(S(=O)(=O)Nc2c(C)nc3nc(C)[nH]n3c2=O)c(C)c1 -1.72%
COc1ccccc1Cc1nc2ccccc2nc1SCC(=O)N1CCCc2ccccc21 -3.73%
Cc1ccccc1-c1noc(-c2cc(C(C)C)[nH]n2)n1 -15.3%
CC(=O)N1CCc2cc(S(=O)(=O)CCC(=O)N3CCN(c4ccccc4F)CC3)ccc21 7.43%
Cc1cc(Nc2ccc(Cl)cc2)n2cnnc2n1 -14%
COc1ccc(-c2nnc(SCC(=O)c3ccc([N+](=O)[O-])cc3)o2)cc1OC -11.7%
Cn1nc(-c2ccc(C(=O)Nc3ccc(OC(F)(F)F)cc3)cc2)c2ccccc2c1=O -30.4%
CCN(CC)S(=O)(=O)c1ccc(C(=O)O)cc1 -10.7%
CCOc1ccccc1N1CC(c2nc3ccccc3n2CCOc2ccccc2OC)CC1=O (configuration not stated) 3.8%
COc1ccc2c(c1)Cc1sc(NC(=O)c3ccc(Cl)cc3)nc1-2 -9.19%
Cc1cccn2c(=O)c3cc(C(=O)NC(C)c4ccccc4)c(=N)n(CCOCCO)c3nc12 (configuration not stated) -8.92%
O=C(NCc1ccccc1Cl)C(=O)NCC(c1cccs1)S(=O)(=O)c1ccccc1 (configuration not stated) 4.02%
N#C/C(=C\c1ccc(-c2ccc(Cl)c(C(=O)O)c2)o1)c1nc2ccccc2[nH]1 -23.9%
Cc1ccc(-n2c(SCc3ccccc3C)nc3[nH]ncc3c2=O)cc1C -2.25%
CCOc1ccc(N(C(=O)c2ccc(OC)cc2)S(=O)(=O)c2ccc3c(c2)n(C)c(=O)n3C)cc1 -1.96%
O=C(NCc1cccnc1)C1CCN(Cc2cc3ccccc3n2Cc2ccccc2)CC1 -30.2%
CCOC(=O)c1cc(OC(=O)c2cccc(F)c2)n(-c2ccccc2)n1 3.43%
CC(C)c1ccc(-c2noc(SCC(=O)N(C)c3ccc(F)cc3)n2)cc1 -18.4%
CC(=O)N1CCCc2ccc(NC(=O)c3ccc(C(F)(F)F)cc3)cc21 -12.2%
Cc1ccccc1-c1noc(-c2ccc(N3CCCC3)c([N+](=O)[O-])c2)n1 -16.1%
CCN(CC)S(=O)(=O)c1ccc2c(c1)N(CC(=O)Nc1c(C)cc(C)cc1C)C(=O)CS2 -16.1%
Cc1cc(C)cc(NC(=O)CSc2nnc(CNC(=O)c3c(F)cccc3Cl)o2)c1 -18%
COC(=O)c1cc2oc(C)cc2n1Cc1ccc(C)cc1 -12.7%
CC(C)c1ccc(NC(=O)CN2C=NS(=O)(=O)c3ccccc32)cc1 -16.1%
CCC(=O)OC1=CN(Cc2ccccc2)S(=O)(=O)c2ccccc21 -3.6%
CCC(=O)C1=C(c2ccc(F)cc2)N(C(=O)CC)n2c(nnc2C2CCCCC2)S1 -1.14%
Cc1cccc(N2CCN(C(=O)CN3C(=O)COc4ccc(S(=O)(=O)N5CCCC5)cc43)CC2)c1C -10.5%
N#C/C(=C\c1c(Oc2ccc(F)cc2)nc2ccccn2c1=O)c1nc2ccccc2s1 -7.59%
